Results: PMC4492818
No constants are given. Whether binding was seen depends on the method and setting. Binding seen in cells or lysates may run through a third protein. Some binding calls cover weakened binding; strength is not graded here. Where a sequence is shown, tags or fusion partners need not be part of it.

By UniProt entry, the sequences of proteins in these tests, tags left out.
UniProt P51617: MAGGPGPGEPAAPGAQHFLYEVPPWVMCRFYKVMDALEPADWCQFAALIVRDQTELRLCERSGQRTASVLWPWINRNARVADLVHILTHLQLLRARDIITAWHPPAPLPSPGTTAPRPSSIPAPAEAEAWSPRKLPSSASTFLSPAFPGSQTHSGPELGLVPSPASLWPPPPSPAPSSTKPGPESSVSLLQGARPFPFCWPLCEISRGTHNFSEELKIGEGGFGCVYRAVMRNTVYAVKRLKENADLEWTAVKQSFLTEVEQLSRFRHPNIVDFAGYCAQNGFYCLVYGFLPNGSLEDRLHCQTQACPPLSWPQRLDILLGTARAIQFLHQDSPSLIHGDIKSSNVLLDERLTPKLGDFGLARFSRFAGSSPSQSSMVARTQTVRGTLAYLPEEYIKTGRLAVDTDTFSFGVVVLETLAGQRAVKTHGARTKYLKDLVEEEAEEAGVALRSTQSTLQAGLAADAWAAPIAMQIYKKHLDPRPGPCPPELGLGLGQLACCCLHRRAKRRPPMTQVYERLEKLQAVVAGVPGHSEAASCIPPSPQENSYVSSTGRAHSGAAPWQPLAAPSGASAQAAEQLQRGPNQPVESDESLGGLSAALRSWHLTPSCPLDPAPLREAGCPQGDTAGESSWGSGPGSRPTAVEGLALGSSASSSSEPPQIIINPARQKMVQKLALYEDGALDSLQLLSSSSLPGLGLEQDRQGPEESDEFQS
UniProt Q99836: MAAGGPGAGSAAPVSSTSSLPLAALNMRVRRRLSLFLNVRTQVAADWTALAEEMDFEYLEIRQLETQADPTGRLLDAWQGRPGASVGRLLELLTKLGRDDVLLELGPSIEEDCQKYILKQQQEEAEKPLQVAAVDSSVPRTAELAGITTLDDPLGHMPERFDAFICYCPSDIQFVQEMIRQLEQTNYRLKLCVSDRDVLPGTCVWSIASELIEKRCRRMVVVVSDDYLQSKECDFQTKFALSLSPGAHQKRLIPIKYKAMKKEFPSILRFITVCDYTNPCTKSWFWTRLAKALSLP
UniProt Q13485: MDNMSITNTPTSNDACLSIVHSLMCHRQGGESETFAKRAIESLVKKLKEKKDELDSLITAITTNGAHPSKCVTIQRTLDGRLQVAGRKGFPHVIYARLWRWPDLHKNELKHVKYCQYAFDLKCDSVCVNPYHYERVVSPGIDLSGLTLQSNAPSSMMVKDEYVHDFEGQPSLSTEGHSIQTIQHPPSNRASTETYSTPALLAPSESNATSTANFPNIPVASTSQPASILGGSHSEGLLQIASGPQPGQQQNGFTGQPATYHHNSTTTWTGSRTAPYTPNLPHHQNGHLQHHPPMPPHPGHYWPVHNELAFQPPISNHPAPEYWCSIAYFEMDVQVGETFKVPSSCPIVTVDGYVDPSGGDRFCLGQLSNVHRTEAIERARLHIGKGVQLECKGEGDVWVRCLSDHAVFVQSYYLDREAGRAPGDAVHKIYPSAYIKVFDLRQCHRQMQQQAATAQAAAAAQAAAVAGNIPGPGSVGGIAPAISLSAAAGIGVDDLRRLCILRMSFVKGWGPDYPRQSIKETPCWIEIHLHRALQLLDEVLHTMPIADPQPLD

How the values were obtained:
Assay in all cases: co-IP; plasmids co-transfected into HEK293 cells; lysates (PBS, 0.5% Triton X-100, 20 mM HEPES pH 7.4, 150 mM NaCl) immunoprecipitated with anti-HA, anti-Myc or the indicated antibodies and protein A/G agarose at 4°C for 12 h; immunoblot with anti-Myc or anti-HA
Flag-IRAK1 = Flag-IRAK1 (UniProt P51617)
Flag-MyD88 = Flag-MyD88 (UniProt Q99836)
[1] = target: T1, HA-Pellino-1 (full-length Pellino-1) (UniProt Q96FA3)
T1 sequence: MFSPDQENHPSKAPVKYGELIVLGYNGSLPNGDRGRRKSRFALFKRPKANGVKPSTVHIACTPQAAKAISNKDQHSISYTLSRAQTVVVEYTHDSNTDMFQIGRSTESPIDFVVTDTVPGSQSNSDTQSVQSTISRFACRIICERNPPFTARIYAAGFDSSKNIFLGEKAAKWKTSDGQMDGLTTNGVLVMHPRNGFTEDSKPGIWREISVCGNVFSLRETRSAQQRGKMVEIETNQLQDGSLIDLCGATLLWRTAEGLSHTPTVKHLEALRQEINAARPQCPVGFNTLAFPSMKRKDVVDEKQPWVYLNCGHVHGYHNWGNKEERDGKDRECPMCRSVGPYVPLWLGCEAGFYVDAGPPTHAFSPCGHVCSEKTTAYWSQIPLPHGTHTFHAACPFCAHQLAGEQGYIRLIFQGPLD

HA-Smad4 = HA-Smad4 (UniProt Q13485)

binding (Flag-IRAK1): no binding
binding (Flag-MyD88): no binding
binding [1]: binds
binding (HA-Smad4): no binding
B1: Myc-Smad6 422-441 (domain or fragment, UniProt O43541 422-441)
chain: GRALVVRKVPPGYSIKVFDF
